# Out of some 360,000 compounds screened, about 25,000 (6.9%) were called active. Inconclusive means that the source gave no clear call. Such entries were picked first, then a sample of the others. Calls come from the whole dose curve; as a rule, active = well fitted inhibition curve with a large enough effect; inconclusive = small, poorly fitted or top-dose-only effect; inactive = flat fitted curve, though single readings scatter. A potency beside an inconclusive call is a rough fit, not a confirmed value.
# Target: Luciferin 4-monooxygenase (Photinus pyralis) (UniProt P08659)
# Sequence of UniProt P08659 (P08659 whole entry, looked up): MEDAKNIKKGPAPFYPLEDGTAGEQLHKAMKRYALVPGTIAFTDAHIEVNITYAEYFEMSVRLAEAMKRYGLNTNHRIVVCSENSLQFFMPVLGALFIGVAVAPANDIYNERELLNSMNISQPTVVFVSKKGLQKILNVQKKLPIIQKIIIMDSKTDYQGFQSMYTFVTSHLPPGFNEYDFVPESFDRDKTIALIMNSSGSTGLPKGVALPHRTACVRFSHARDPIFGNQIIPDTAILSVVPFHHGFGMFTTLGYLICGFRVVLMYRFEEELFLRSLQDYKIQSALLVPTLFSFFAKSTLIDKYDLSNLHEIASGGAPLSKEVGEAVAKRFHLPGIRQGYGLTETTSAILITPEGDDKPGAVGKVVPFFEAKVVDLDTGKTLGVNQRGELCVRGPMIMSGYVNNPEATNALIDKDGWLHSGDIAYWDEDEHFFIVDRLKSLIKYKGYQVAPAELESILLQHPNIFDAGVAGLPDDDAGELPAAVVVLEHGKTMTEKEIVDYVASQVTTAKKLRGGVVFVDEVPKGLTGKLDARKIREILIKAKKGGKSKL
# Test: qHTS profiling assay for firefly luciferase inhibitor/activator using purifed enzyme and Km concentrations of substrates (counterscreen for miR-21 project); note: nearly all actives have a fitted effect of over 55% in size;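 for activity change, negative = inhibition: plate controls were vehicle for no effect and reference inhibitor for full effect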
# Conditions: purified FLuc, luminescence inhibition; series mostly up to 57.5 µM; activity change, negative = inhibition: at the top concentration
# Method in brief: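 Biochemical qHTS of compounds, final roughly 60 µM downward over six points, against 10 nM purified firefly luciferase using Km concentrations of substrates (10 uM D-luciferin, 10 uM ATP) in Tris acetate pH 7.5 buffer; luminescence output.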
# Potency is the fitted concentration of half-maximal effect; tags give direction and shape of the fitted curve.
SMILES,Potency,"activity change, negative = inhibition"
CC(Oc1ccccc1)C(=O)Nc1ccccc1C(=O)OCc1cc(=O)n2nc(C(C)C)sc2n1 (stereo not given),"inconclusive: 30.1 µM [inhibitor, partial curve, poor fit]",
Cc1cccc(CNc2ncnc3ccc(-c4ccc5c(ccn5C)c4)cc23)c1,"inconclusive: 23.9 µM [inhibitor, single point]",
COc1ccc(-c2cc(C(=O)N3CCC3)c3ccccc3n2)cc1OC,,inactive: 2.9%
O=C1CCCN1c1ccc(C(=O)N(Cc2nnc(-c3ccccc3Cl)o2)C2CC2)cc1,"inconclusive: 21.3 µM [inhibitor, partial curve, poor fit]",
Cc1sc(NC(=O)CN(Cc2ccc(F)cc2)C(=O)C(C)(C)C)c(C(N)=O)c1C,,inactive: -0.648%
NS(=O)(=O)c1cccc(NC(=O)COC(=O)COc2ccc3ccccc3c2)c1,"inconclusive: 30.1 µM [inhibitor, partial curve, poor fit]",
O=C(Nc1ccccc1Cl)c1cc2ccccc2o/c1=N\O,active: 2.13 µM,
Cc1ccc(C(=O)ON=C2CCN(c3ccc([N+](=O)[O-])cc3)CC2)cc1,active: 10.7 µM,
Cc1ccc(NC(=S)Nc2nc(CC(=O)Nc3ccccc3)cs2)cc1,"inconclusive: 16.9 µM [inhibitor, partial curve]",
CCc1ccc(C(=O)COc2ccc(NC(C)=O)cc2)cc1,"inconclusive: 19 µM [inhibitor, partial curve, poor fit]",
CCc1nc(-c2ccc(-c3ccc(OC)cc3)nc2OC)no1,active: 21.3 µM,
S=C(NCc1ccccc1)Nc1ccc(Oc2ccccc2)cc1,,inactive: -20.8%
Cc1ccc(-c2noc(-c3ccccc3C(=O)N3CCOCC3)n2)cc1,"inconclusive: 23.9 µM [inhibitor, single point]",
Cc1ccc(NC(=O)c2noc3c2CCCCC3)cc1,active: 9.53 µM,
Cn1c(COc2ccc(Cl)cc2Cl)nnc1SCC(=O)NCC1CCCO1 (stereo not given),,inactive: -1.74%
CC(C)Oc1ccc(CNC(=O)c2ccc3c(c2)N(C)CCS3)cc1,"inconclusive: 23.9 µM [inhibitor, single point]",
COc1ccc(C(=O)Nc2cc(-c3nc4ccccc4s3)ccc2OC)cc1,"inconclusive: 5.36 µM [inhibitor, full curve]",
CCCCc1ccc(NC(=O)N[C@@H](C)C(=O)O)cc1,"inconclusive: 30.1 µM [inhibitor, single point]",
CCOc1ccc(NC(=O)Nc2nc(SCC)ns2)cc1,"inconclusive: 30.1 µM [inhibitor, partial curve, poor fit]",
O=C(/C=C/c1ccco1)NC(=S)Nc1ccccc1,active: 26.9 µM,
C=Cc1ccc(Cn2c(C(=O)O)c(CNC3CCCCC3)c3ccc(OC)cc32)cc1,,inactive: 0.159%
Cc1ccc(Nc2nnc(SC3CCOC3=O)s2)c(C)c1 (stereo not given),"inconclusive: 21.3 µM [inhibitor, partial curve]",
CCOC(=O)C1(Cc2cccc(OC)c2)CCN(C2CCOCC2)CC1,active: 3.01 µM,
CCN(C(=O)C(C)Sc1ccc(S(=O)(=O)N2CCOCC2)cn1)c1ccccc1 (stereo not given),,inactive: 2.64%

SMILES,Potency,"activity change, negative = inhibition"
CC/C(=N\NC(=S)Nc1cccc(C)c1)c1ccccc1,"inconclusive: 21.3 µM [inhibitor, single point]",
COC(=O)N/N=C/c1cn(CCCOc2ccc(C)cc2)c2ccccc12,"inconclusive: 26.9 µM [inhibitor, partial curve]",
O=C(N=C1SCC(=O)N1c1ccccc1Cl)c1ccco1,"inconclusive: 19 µM [inhibitor, partial curve, poor fit]",
O=C(N/N=C/C(Br)=C/c1ccccc1)C1CC1,"inconclusive: 16.9 µM [inhibitor, partial curve]",
COc1cc(NC(=O)c2ccc(N)nc2)cc(C(=O)Nc2cccc(C(F)(F)F)c2)c1,active: 7.57 µM,
CCc1ccc(/C=C2/C(=O)N(CC)C(=S)N2C)s1,"inconclusive: 16.9 µM [inhibitor, partial curve]",
CC(C)(C)N1CC(c2nc3ccccc3n2Cc2ccc(F)cc2)CC1=O (stereo not given),,inactive: -0.554%
COC(=O)c1ccccc1NC(=O)c1sc(Cl)nc1C,"inconclusive: 37.9 µM [inhibitor, partial curve, poor fit]",
O=C(O)c1cnc(-c2ccccc2)nc1Oc1ccccc1,"inconclusive: 26.9 µM [inhibitor, partial curve, poor fit]",
O=C(CSc1nc2[nH]c(=O)cc(O)c2s1)Nc1ccc(Br)cc1,"inconclusive: 30.1 µM [inhibitor, single point]",
O=C(/C=C/c1ccc(Cl)c([N+](=O)[O-])c1)c1ccc(O)cc1,"inconclusive: 12 µM [inhibitor, partial curve, poor fit]",
Cc1nn(-c2cccc(Cl)c2)c(Cl)c1/C=N/NC(=O)c1cccnc1,"inconclusive: 30.1 µM [inhibitor, single point]",
Cc1cc(C(=O)COC(=O)/C=C/c2cccc(F)c2)c(C)n1C,"inconclusive: 37.9 µM [inhibitor, single point]",
O=C(Nc1cnc2ccccn2c1=O)c1ccc(Cl)cc1Cl,active: 1.69 µM,
CCOc1ccc2nc(N(CCN(C)C)C(=O)c3cc4ccccc4cc3OC)sc2c1,,inactive: 1.17%
Cc1cc(C(=O)N/N=C/c2ccc(O)c([N+](=O)[O-])c2)n[nH]1,"inconclusive: 23.9 µM [inhibitor, single point]",
COc1ccc(N(C)C(=O)c2cn(CC(C)C)c(=O)c3cc(OC)c(OC)cc23)c(OC)c1,,inactive: 1.16%
Cc1csc2c(N3CCN(C(=O)c4ccc(C(C)(C)C)cc4)CC3)ncnc12,active: 26.9 µM,
CC1CCC2(CC1)NC(=O)N(CC(=O)NC(=O)Nc1ccc3c(c1)OCCO3)C2=O (stereo not given),,inactive: -1.37%
O=C(c1ccc(F)cc1)N1CCC(c2nc3ccccc3s2)CC1,,inactive: -9.99%
c1ccc(-n2cnc3ccccc32)cc1,"inconclusive: 23.9 µM [inhibitor, single point]",
Cc1cc(C)c(NC(=O)Cn2c(=O)n(CCC(=O)NCc3ccccc3Cl)c(=O)c3sccc32)c(C)c1,,inactive: 5.03%
COc1ccc(C(=O)/C=C/c2cn(CN3CCN(C)CC3)c3ccccc23)cc1,active: 6.01 µM,
COc1ccc(NC(=O)c2sc(NC(=O)COc3ccccc3)nc2C)cc1,"inconclusive: 37.9 µM [inhibitor, single point]",

SMILES,Potency,"activity change, negative = inhibition"
O=C(O)c1cccc(-c2ccc(/C=N/Nc3nn[nH]n3)o2)c1,"inconclusive: 16.9 µM [inhibitor, partial curve]",
CCc1ccc(CNCc2cccs2)cc1,"inconclusive: 26.9 µM [inhibitor, single point]",
COc1ccc(NC(=O)c2cnn(-c3ccccc3)c2C)c(OC)c1,"inconclusive: 26.9 µM [inhibitor, partial curve, poor fit]",
O=C(Nc1nc2ccc(F)cc2s1)c1nc(S(=O)(=O)Cc2ccccc2F)ncc1Cl,"inconclusive: 6.01 µM [inhibitor, partial curve, poor fit]",
COc1cccc(OCC(=O)O/N=C(\N)c2ccncc2)c1,"inconclusive: 37.9 µM [inhibitor, partial curve, poor fit]",
O=C(Nc1ccn(Cc2ccc(Cl)cc2)n1)c1ccc2c(c1)OCO2,active: 21.3 µM,
COc1ccc(C(=O)Nc2ccc3nc(SCC(=O)N(C)c4ccccc4)sc3c2)cc1,"inconclusive: 9.53 µM [inhibitor, partial curve]",
O=C(Nc1ccc(Cl)c(Cl)c1)Nc1ccccc1NS(=O)(=O)c1cccs1,"inconclusive: 26.9 µM [inhibitor, single point]",
CC1CCc2c(sc3ncn4c(SCC(=O)NCc5ccco5)nnc4c23)C1 (stereo not given),"inconclusive: 15.1 µM [inhibitor, partial curve, poor fit]",
C=CCn1c(SCC(=O)Nc2cc3oc4ccccc4c3cc2OC)nnc1-c1cnccn1,"inconclusive: 12 µM [inhibitor, partial curve]",
COc1ccc2sc(-c3ccc(N(C)C)cc3)c(C#CCCO)c2c1,"inconclusive: 12 µM [inhibitor, single point]",
Cc1[nH]c(-c2ccc(F)cc2)cc1C(=O)N1CCN(c2cccc(Cl)c2)CC1,,inactive: -0.557%
NCCCC[C@H]1CNC(=O)C(=O)N1CCc1cccc(F)c1,,inactive: 0.701%
O=C1CCCC2=C1C1O[C@](c3ccsc3)(Cc3c1ccc1ccccc31)O2,"inconclusive: 6.92 µM [inhibitor, single point]",
C#CCSc1nnc(-c2sc(-c3ccccc3)nc2C)n1C,"inconclusive: 37.9 µM [inhibitor, partial curve, poor fit]",
CN1C(=O)/C(=C/c2ccccc2Cl)Sc2ccc(C(=O)NCc3cccnc3)cc21,"inconclusive: 26.9 µM [inhibitor, partial curve, poor fit]",
OCCC#Cc1ccc(CN2CCN(Cc3ccsc3)C(CCO)C2)cc1 (stereo not given),"inconclusive: 23.9 µM [inhibitor, partial curve]",
O=c1nc(/C=C/c2cccn2-c2ccc([N+](=O)[O-])cc2)cc(C(F)(F)F)[nH]1,"inconclusive: 10.7 µM [inhibitor, partial curve]",
COc1cc(C(=O)N/N=C/c2sc(=O)n(-c3ccccc3)c2Cl)cc(OC)c1OC,active: 6.01 µM,
CC1CCCCN1C(=O)COC(=O)c1ccc2ccccc2n1 (stereo not given),active: 8.49 µM,
CN(C)N1C(=O)CC(C)(c2ccc([N+](=O)[O-])cc2)C1=O (stereo not given),,inactive: -0.85%
N#Cc1cc(C#N)c(N2CCN(c3ccccn3)CC2)nc1N,"inconclusive: 15.1 µM [inhibitor, partial curve]",
